PubChem BioAssay AID2675 (National Center for Advancing Translational Sciences (NCATS), 2010)
Hit rate of the full screen: of about 280,000 compounds, about 100 (0.036%) were called active. This list was built around the results that the source calls inconclusive (neither active nor inactive); the mix of calls is not that of the screen. The call rests on the fitted dose curve; in most records, active means well fitted inhibition curve with a large enough effect in the signal ratio, with a control signal flat (not every such curve was filed as active); inconclusive means small, poorly fitted or top-dose-only effect, or effect the other way, or a change in a side signal; inactive means no such curve, though single readings can be large or run the other way; the % refers to the signal ratio. Where the call is inconclusive, the potency comes from a doubtful curve fit. A note “side channel” means that the fit belongs to a control or component signal, not to the main read-out.

These compounds were tested against Muscleblind-like protein 1 (Homo sapiens) (UniProt Q9NR56) (assay: qHTS Assay for Inhibitors of MBNL1-poly(CUG) RNA binding). Conditions: TR-FRET MBNL1-His/biotin-(CUG)12 binding, 665/545 ratio; activity change, negative = inhibition: at 57.5 µM (top of the series).
Sequence of UniProt Q9NR56 (Q9NR56 whole entry, looked up): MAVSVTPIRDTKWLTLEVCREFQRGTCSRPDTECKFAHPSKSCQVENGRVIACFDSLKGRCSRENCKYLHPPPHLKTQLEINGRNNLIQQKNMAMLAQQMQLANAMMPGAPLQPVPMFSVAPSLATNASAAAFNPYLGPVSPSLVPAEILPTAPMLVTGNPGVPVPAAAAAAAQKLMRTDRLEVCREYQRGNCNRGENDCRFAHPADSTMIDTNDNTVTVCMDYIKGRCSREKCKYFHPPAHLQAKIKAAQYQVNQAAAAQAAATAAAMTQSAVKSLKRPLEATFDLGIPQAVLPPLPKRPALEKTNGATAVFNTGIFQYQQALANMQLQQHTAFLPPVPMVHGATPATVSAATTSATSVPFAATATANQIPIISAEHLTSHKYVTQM
Summary of the method: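 Ratiometric TR-FRET (665 over 545 nm, excitation 340 nm) tracks disruption of MBNL1-His/biotin-(CUG)12 complex after 60 min at room temperature, with compounds at 92 nM to 58 uM final.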
On the % scale 0 is the no-effect control and ±100 the full control effect; potency means the concentration at half of the fitted maximal effect; tags describe the fitted curve by direction and shape or compound fluorescence and quenching.

Row | SMILES | Potency | activity change, negative = inhibition
1 | O=C1c2ccccc2C(=O)N1CCSc1ncn[nH]1 | inconclusive: 79.4 µM [inhibitor, single point] | 
2 | Cc1cc(N2CCN(c3ccc(C(F)(F)F)cc3[N+](=O)[O-])CC2)c2ccccc2n1 | inconclusive: 8.91 µM [quencher, side channel, partial curve] | 
3 | COc1ccc(CNC(=O)c2cc(S(=O)(=O)N3CCOCC3)cn2C)cc1 |  | inactive: -9.91%
4 | Clc1cc(Br)ccc1OCCn1ccnc1 | inconclusive: 0.794 µM [quencher, side channel, single point] | 
5 | O=C(Cc1ccccc1)NCC(=O)N/N=C/c1ccc([N+](=O)[O-])s1 | inconclusive: 3.98 µM [quencher, side channel, full curve] | 
6 | O=C(CSc1nc2nn(-c3ccccc3)c(=O)c-2c2n1CCCCC2)NCCCc1ccccc1 | inconclusive: 28.2 µM [quencher, side channel, partial curve] | 
7 | CCc1ccc2nc(N3C(=O)C(O)=C(C(=O)c4ccco4)C3c3cccs3)sc2c1 (configuration not stated) |  | inactive: 42.3%
8 | Cc1nc2c(c(=O)n1CCC1=CCCCC1)c1nc3ccccc3nc1n2/N=C/c1ccco1 | inconclusive: 15.8 µM [quencher, side channel, partial curve] | 
9 | CC1(C)SCC(C(=O)O)NC1=O (configuration not stated) | inconclusive: 50.1 µM [inhibitor, single point] | 
10 | COc1ccc(CCN2C(=O)CC(NNc3ccc([N+](=O)[O-])cc3)C2=O)cc1OC (configuration not stated) | inconclusive: 20 µM [quencher, side channel, partial curve] | 
11 | N=C1S/C(=C\c2ccc(-c3ccccc3C(=O)O)o2)C(=O)N1c1ccc2c(c1)OCO2 | inconclusive: 28.2 µM [quencher, side channel, single point] | 
12 | COc1ccc(OC)c(NC(=O)CNC(=O)c2ccc([N+](=O)[O-])cc2)c1 | inconclusive: 10 µM [quencher, partial curve] | 
13 | Cc1cccc(Oc2ncnc(N)c2[N+](=O)[O-])c1 | inconclusive: 3.16 µM [quencher, side channel, single point] | 
14 | Cc1c(NC(=O)c2ccc(-c3cccc([N+](=O)[O-])c3)o2)c(=O)n(-c2ccccc2)n1C | inconclusive: 15.8 µM [quencher, side channel, partial curve] | 
15 | O=C1N=C(N2CCOCC2)S/C1=C\C=C/c1ccccc1 | inconclusive: 17.8 µM [quencher, side channel, partial curve] | 
16 | COc1cc(/C=N\NC(=O)CNC(=O)c2cccc([N+](=O)[O-])c2)ccc1O | inconclusive: 14.1 µM [quencher, side channel, partial curve] | 
17 | CCOc1ccccc1C1CC(=O)Nc2cc(C)c(C)cc21 (configuration not stated) |  | inactive: -3.85%
18 | O=C(CN1CCOCC1)NNC(=O)c1ccc([N+](=O)[O-])cc1 | inconclusive: 12.6 µM [quencher, side channel, partial curve] | 
19 | CCOC(=O)Cn1nc(C)c(NC(=O)c2cccc([N+](=O)[O-])c2)c1C | inconclusive: 28.2 µM [quencher, side channel, partial curve] | 
20 | O=C(CCNC(=O)c1ccc([N+](=O)[O-])cc1)Nc1ccc(F)cc1 | inconclusive: 11.2 µM [quencher, side channel, partial curve] | 
21 | Cc1ccsc1C(=O)Nc1ccc(F)c([N+](=O)[O-])c1 | inconclusive: 3.16 µM [quencher, side channel, partial curve, poor fit] | 

Row | SMILES | Potency | activity change, negative = inhibition
22 | Cc1cc(C(=O)NCCN2CCOCC2)ccc1[N+](=O)[O-] | inconclusive: 15.8 µM [quencher, side channel, partial curve] | 
23 | COCCCNC(=O)CSC1=Nc2ccccc2C2=NC(CC(=O)NCc3ccccc3)C(=O)N12 (configuration not stated) |  | inactive: -4%
24 | O=C(N1CCOCC1)N1CCN(c2ccccn2)CC1 | inconclusive: 79.4 µM [inhibitor, single point] | 
25 | O=c1c[n+]([O-])c2ccccc2n1OCc1ccccn1 | inconclusive: 15.8 µM [quencher, partial curve] | 
26 | CC(=O)c1c(C)cc(C)c(CSc2nc(C)cc(=O)[nH]2)c1C |  | inactive: -13.7%
27 | Cc1cc(-c2ccccc2)nc2[nH]n(-c3ccccc3)c(=O)c12 | inconclusive: 28.2 µM [quencher, partial curve] | 
28 | CCOc1ccc(Nc2ncnc3ccc([N+](=O)[O-])cc23)cc1 | inconclusive: 3.55 µM [quencher, side channel, partial curve] | 
29 | O=C1CC(c2ccccc2)CN1C(=O)c1cccc([N+](=O)[O-])c1 (configuration not stated) | inconclusive: 39.8 µM [quencher, single point] | 
30 | O=C(NCc1ccco1)c1ccc(COc2cc(Cl)ccc2Cl)cc1 | inconclusive: 3.98 µM [fluorescent, side channel, partial curve] | 
31 | COc1ccc2c(OC)c3ccoc3nc2c1OC | inconclusive: 10 µM [quencher, side channel, partial curve] | 
32 | CCN(CC)S(=O)(=O)c1ccc2c3c(cccc13)C(=O)S2 | inconclusive: 12.6 µM [quencher, side channel, partial curve] | 
33 | CCOC(=O)c1csc(NC(=O)CSc2nnc(C3CC3)n2C)n1 |  | inactive: -1.66%
34 | O=C(O)c1ccc(S(=O)(=O)c2ccccc2C(=O)O)c([N+](=O)[O-])c1 | inconclusive: 14.1 µM [quencher, side channel, partial curve] | 
35 | COc1ccccc1NC(=O)NC1(C(=O)N2CCCCC2)CCCCC1 |  | inactive: -0.612%
36 | CCOC(=O)c1ccc2c(c1)N(C)C(=O)c1ccccc1S2 |  | inactive: -6.66%
37 | COCC(=O)Nc1cc(C(=O)NCCc2ccccc2)ccc1Cl | inconclusive: 3.16 µM [inhibitor, full curve, poor fit] | 
38 | Oc1ccc2ccccc2c1-c1sc(Nc2ccccc2)n[n+]1-c1ccc(F)cc1 |  | inactive: 8.13%
39 | COC(=O)c1ccc(/C=C/c2ccc3cccc(OC)c3n2)cc1 | inconclusive: 1 µM [quencher, side channel, single point] | 
40 | CC(=O)c1sc(NC(=O)C2(F)C(F)(F)C(F)(F)C(F)(F)C(F)(F)C2(F)F)nc1C | inconclusive: 17.8 µM [quencher, side channel, partial curve] | 
41 | Cc1nc2ccccc2nc1SCC(=O)N1CCC(C)CC1 |  | inactive: 36%
42 | CC(OC(=O)CCC(=O)c1cccs1)C(=O)Nc1ccccc1[N+](=O)[O-] (configuration not stated) | inconclusive: 31.6 µM [quencher, side channel, partial curve] | 

Row | SMILES | Potency | activity change, negative = inhibition
43 | CN1CCc2c1nc1ccccc1c2N (tested in a mixture with another compound) | inconclusive: 17.8 µM [quencher, side channel, partial curve] | 
44 | O=C(Nc1cccnc1)c1cccc([N+](=O)[O-])c1 | inconclusive: 14.1 µM [quencher, side channel, partial curve] | 
45 | CC1=N/C(=C\c2ccc3c(c2)OCO3)C(=O)N1c1ccc(C(=O)O)cc1 | inconclusive: 25.1 µM [quencher, side channel, partial curve, poor fit] | 
46 | O=C(Nc1nccs1)c1cccnc1Cl |  | inactive: -10.4%
47 | O=C(Nc1ccc(S(=O)(=O)Nc2ccccn2)cc1)c1cccc([N+](=O)[O-])c1 | inconclusive: 3.16 µM [quencher, side channel, single point] | 
48 | Cc1nc2cc(-c3ccsc3-n3c(C)ccc3C)[nH]n2c(=O)c1Cl |  | inactive: 1.09%
49 | N#C/C(=C(/O)c1cccs1)c1nnc2n1CCCCC2 |  | inactive: -0.0005%
50 | O=C(/C=C/c1cccs1)N1CCN(c2ccccc2F)CC1 | inconclusive: 35.5 µM [quencher, side channel, single point] | 
51 | Oc1nc(-c2ccc(Br)cc2)n2ccncc12 | inconclusive: 20 µM [quencher, side channel, partial curve] | 
52 | CCN1CCN(c2c(C=O)c(Cl)nc3ccc(OC)cc23)CC1 | inconclusive: 7.94 µM [quencher, side channel, partial curve] | 
53 | COC(=O)c1c(N2C(=O)[C@H]3[C@@H](C2=O)[C@]2(C(=O)Nc4c(C)cccc42)N2CCC[C@@H]32)sc(C)c1C | inconclusive: 5.62 µM [inhibitor, full curve, poor fit] | 
54 | O=C(Nc1cccc(Cl)c1)c1ccc(F)c(S(=O)(=O)NCc2cccs2)c1 |  | inactive: 4.79%
55 | O=c1sc2ccccc2c(=O)n1Cc1ccccc1F |  | inactive: -10.3%
56 | Cc1nc2scc(C)n2c(=O)c1S(=O)(=O)Nc1ccc(N2CCOCC2)c(Cl)c1 |  | inactive: 3.57%
57 | Cc1ccc2nc(/C(C#N)=C\c3ccc(N4CCCCC4)c([N+](=O)[O-])c3)[nH]c2c1 | inconclusive: 25.1 µM [quencher, side channel, single point] | 
58 | O=C(COC(=O)c1cc(=O)[nH]c2ccccc12)c1ccccc1 | inconclusive: 6.31 µM [quencher, side channel, partial curve] | 
59 | O=C(NCc1ccccn1)c1c(O)c2cccc3c2n(c1=O)CC3 |  | inactive: 7.01%
60 | CCOC(=O)C1CCN(C(=O)c2cc3cc4ccc(OC)cc4nc3o2)CC1 | inconclusive: 17.8 µM [quencher, partial curve] | 
61 | NC(=O)COc1ccc2c3c(c(=O)oc2c1)CCCCC3 | inconclusive: 12.6 µM [quencher, side channel, partial curve] | 
62 | CCN(CC)C(=O)C1CCCN(C(=O)Nc2ccc3nsnc3c2)C1 (configuration not stated) | inconclusive: 17.8 µM [quencher, side channel, partial curve] | 
